According to US20130195871A1 (AbbVie / Abbott, published 2013):
Values belong to the binder of their own block, whether it stands above or below them.

Key:
[1] = molecular target: T1, Recombinant Human IGF1R (human, UniProt P08069 31-932); test: SPR (Biacore), N-terminal VD;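 note: capture of antibodies or DVD-Ig proteins on an anti-mouse IgG chip surface, recombinant antigen injected at 10–200 nM in HBS-EP running buffer at 25 °C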
T1 construct: bought reagent

[2] = molecular target: T2, Recombinant Human MSP Receptor ECD-His tag (human, UniProt Q04912 25-957); test: SPR (Biacore), N-terminal VD;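 note: capture of antibodies or DVD-Ig proteins on an anti-mouse IgG chip surface, recombinant antigen injected at 10–200 nM in HBS-EP running buffer at 25 °C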
T2 construct: extracellular domain; bought reagent; also called RON

[3] = molecular target: T3, EGFR on the cell surface (human, UniProt P00533); test: flow cytometry on cells, 2 ug/mL, C-terminal VD;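 note: cells stained for 30 to 60 min on ice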
T3 construct: whole, on cells

Kd [1]: 0.011 µM
koff [1]: 0.00025 s⁻¹
kon [1]: 22000 M⁻¹ s⁻¹
B1: DVD2286 (bispecific antibody)
VH: EVQLVQSGAEVKKPGSSVKVSCKASGGTFSSYAISWVRQAPGQGLEWMGGIIPIFGTANYAQKFQGRVTITADKSTSTAYMELSSLRSEDTAVYYCARAPLRFLEWSTQDHYYYYYMDVWGKGTTVTVSSASTKGP[about 120 residues left out]
VL: SSELTQDPAVSVALGQTVRITCQGDSLRSYYATWYQQKPGQAPILVIYGENKRPSGIPDRFSGSSSGNTASLTITGAQAEDEADYYCKSRDGSGQHLVFGGGTKLTVLGQPKAAP[about 100 residues left out]
notes: DVD-Ig, outer AB075 / inner AB004

Kd [2]: 0.023 µM
B2: DVD2311 (bispecific antibody)
VH: QVQLQESGPGLVKPSEILSLTCTVSGGSISSHYWSWVRQPPGKGLEWIGYIYYSGSTNYNPSLKSRVTISVDTSKNQFSLNLSSVTAADTAVYYCARIPNYYDRSGYYPGYWYFDLWGRGTLVTVSSASTKGP[about 120 residues left out]
VL: QAVLTQPSSLSAPPGASASLTCTLRSGFNVDSYRISWYQQKPGSPPQYLLRYKSDSDKQQGSGVPSRFSGSKDASANAGILLISGLQSEDEADYYCMIWHSSAWVFGGGTKLTVLRQPKAAP[about 100 residues left out]
notes: DVD-Ig, outer AB034 / inner AB004

GEO MEAN [3]: 210
B3: DVD2301 (bispecific antibody)
VH: [about 120 residues left out]ASTKGPEVQLVESGGGLVQPGGSLRLSCAASGFSLTNYGVHWVRQAPGKGLEWLGVGWSGGNTDYNTPFTSRLTINKDNSKNTVYLQMNSLRAEDTAVYYCARALTWYDYEFAYWGQGTLVTVSS
VL: [about 100 residues left out]RTVAAPDILLTQSPGTLSLSPGERATLSCRASQSIYTNIHWYQQKPGQAPRLLIKYASESISGIPDRFSGSGSGTDFTLTISRLEPEDFAVYYCQQNLNWPTTFGQGTKLEIK
notes: DVD-Ig, outer AB004 / inner AB400
